# Experimental data as given in article PMC12136788.
# This is one part of the list.
# B1: chr6:96891104:96891324:-|CDS|ENSG00000123545|unk|total|mutant (ssRNA)
# RNA: GGGAGUUCUACAGUCCGACGAUCUAAUCAUAAGCUUUUCCCAGAAACCUGGACUGCUGAGAAAAUAAUGCAGGAAUACCAGUCCGAACAGAAAGAUGUGAAUUCUCUUCUUAAAUAUUUUGUUACUUUUGAAGUCGAAAUCUUCAACAGAGGAUUGAGCAUCA
# B2: chr2:70149884:70150355:-|three_prime_utr|ENSG00000115998|control|control|control (ssRNA)
# RNA: GGGAGUUCUACAGUCCGACGAUCAGAUAAUAAUCUUUUGCUGCUUAAUUUGCACAUCCCCACCCCUUGACAACUUUAAAUGCUAGUUAGGCACUUAGAUGGCCCUGUUCCUUGGUAAACUGCUCUUAGCUAAGAUGCAAAUUCCAACAGAGGAUUGAGCAUCA
# B3: chr1:93888438:93888539:-|3pUTR|ENSG00000023909|msi1|FALSE|unique (ssRNA)
# RNA: GGGAGUUCUACAGUCCGACGAUCAGAUAUUUUUCCUGUCAUUGAUGAGAUAUAUCAGAGUAACUGGAGUAGCUGGGAUUUACUAGUAGUGUAAAUAAAAUUCACUCUUCAAUACAUGAAUGGAAACUUAAAUUUUUUUUUAUGCAACAGAGGAUUGAGCAUCA
# B4: chr12:1788447:1788559:+|3pUTR|ENSG00000006831|unk|FALSE|bound_elsewhere (ssRNA)
# RNA: GGGAGUUCUACAGUCCGACGAUCUUUCUUUUUUGGCCCUAGGCUGGUUGGGACCUCUACAGCUUCAUUCUUUCACCAUUAAAUAGUGGCCUUUUUCAGUAUUUUCCCUCUUCCCCUUUAUAAAUUAUGCUAAAGCCACAAAGCCAACAGAGGAUUGAGCAUCA
# B5: chr19:53353201:53353302:+|CDS|ENSG00000213799|msi1|total|mutant (ssRNA)
# RNA: GGGAGUUCUACAGUCCGACGAUCCACAAUUCAGCCCUUGAAAUUCAUAAGGCAAUUCAUACUGGAGAAAAACCUUACAAGUGCCGUGAAUGUGGCAAGGUUUUUAACCGAAAAGCAAACCUUUCACGUCAUCACCGACUUCAUCAACAGAGGAUUGAGCAUCA
# B6: chr4:16162636:16162738:-|3pUTR|ENSG00000169762|unk|total|mutant (ssRNA)
# RNA: GGGAGUUCUACAGUCCGACGAUCACCUUAAAUAAGACAUGAUGAACCGCCGCAUUUUGCCGGGUUAAAAAAAAAUGCUAAACCCGUUUAUUUAUUAAAAAAAUAAUUAAUGAAGGCUAUGCAUUACUGGGAAAAAUCCUUCAUCAACAGAGGAUUGAGCAUCA
# B7: chr22:39520512:39520623:+|5pUTR|ENSG00000128272|unk|total|mutant (ssRNA)
# RNA: GGGAGUUCUACAGUCCGACGAUCUCUAUAAAGGGCCGGCGGGCGGCCACGGCAGCCAUUUCUACUUUGCCCGCCCACAGAUGCCGUUUUCUCUGCGCGUGUGCGUUUUCCCUCCUCCCCGCCCUCAGGGUCCACGGCCACCAUCAACAGAGGAUUGAGCAUCA
# B8: chr2:106801599:106806677:-|three_prime_utr|ENSG00000144057|control|control|control (ssRNA)
# RNA: GGGAGUUCUACAGUCCGACGAUCAAUCAAUGUGCAAUAAGGUACUACUGUUGUACUCAAAGUCACAAAAGAAUACUUGAAGAUAGAUUUUAGACAGUGUAGUUUUGAGUCUUUAAACAGUAAUUUAGUGGUGGUCAUGAUAAUCAACAGAGGAUUGAGCAUCA
# B9: chr11:103061782:103061883:-|3pUTR|ENSG00000137692|unk|total|mutant (ssRNA)
# RNA: GGGAGUUCUACAGUCCGACGAUCAAGACUGUUGGCCUUGACUUCUGGGAUAAUGAUUUGCUGAUGCAGCUAAUAAACAUUUCCCGGUAUUGGAAAAAUGCUCCUACUUUCCGCUCUGGGUUUCUAUAAAAGCUGCCAAGGUCUCAACAGAGGAUUGAGCAUCA
# B10: chr8:58815337:58815724:-|CDS|ENSG00000198846|control|control|control (ssRNA)
# RNA: GGGAGUUCUACAGUCCGACGAUCUAGUCUCCCCAGGAACAUAGCCCCCAAGCCGAAUAACCAAAUGCCAGUGACUGUCUCUAUAGCAAACAUGGCUGUGUCCCCUCCUCCUCCCCUCCAGAUCAGCCCGCCUCUUCACCAGCACAACAGAGGAUUGAGCAUCA
# B11: chr6:89794666:89794767:-|CDS|ENSG00000112159|unk|total|mutant (ssRNA)
# RNA: GGGAGUUCUACAGUCCGACGAUCCCAGUCUUUCAAAGACUUUUCCCCGAGAGUUCAGAUGCUAAUCCAGUACGCUAUGGACGCCGGAGGAUGAAGCUCCGGGACCUAAUGGAAGCAGCCUUCAAGUUUCUGCAGCAGGAGCAGCAACAGAGGAUUGAGCAUCA
# B12: ENSG00000112208:stop:overlap|stop_codon|ENSG00000112208|stop_codon|NA|stop_codon (ssRNA)
# RNA: GGGAGUUCUACAGUCCGACGAUCAGCAUUCUAAAGGAGCUGGUUCCAAAACUCUGCAACAAAAUGCUGAAAGCAGAUUCAAUUAGUCUUCAAACCUAAGAGCAUUUACACAAUACACAAGGUGUAAAAAUGAUAAAAUACUAUCAACAGAGGAUUGAGCAUCA
# B13: chr11:92891788:92891889:+|3pUTR|ENSG00000165323|msi1|total|mutant (ssRNA)
# RNA: GGGAGUUCUACAGUCCGACGAUCAUGAGGCUUUUUGGGUUCCAUUUGGUGGGUGGGGGAGGAAGUUAAAGUUGUUUGAACAUCCGAAAGAAUGUGAUUAUCUGGUUGGUUUUGUGUUUUCUGGUAAAUAUUCCAGUUGGUAAACAACAGAGGAUUGAGCAUCA
# B14: ENSG00000069329:stop:overlap|stop_codon|ENSG00000069329|stop_codon|NA|stop_codon (ssRNA)
# RNA: GGGAGUUCUACAGUCCGACGAUCUGGAGAAGGGGCCCCACAGACCGUUCGGGAUUAAGACCAGCCCGAUUUGGCCUGCGGGAUAGGGGACAGCAGGAGGAAGGCCGCGGGCAGGCUGAUCCGGGCCGGGGUGGGCGGCGGCUCCAACAGAGGAUUGAGCAUCA
# Target: MSI1 full-length (mouse, UniProt Q61474 1-362)
# Experiment: nsRBNS (natural sequence RNA bind-n-seq); RBNS binding buffer (assumed for nsRBNS): 25 mM Tris pH 7.5, 150 mM KCl, 3 mM MgCl2, 0.01% Triton X-100, 500 ug/ml BSA, 20 U/ml SUPERase-In, 4 C; UNK is unkempt and MSI1 is Musashi-1; names of the RNAs are library labels; protein concentration not given here; high values mean tight binding
# Chain of UniProt Q61474 (Q61474 whole entry): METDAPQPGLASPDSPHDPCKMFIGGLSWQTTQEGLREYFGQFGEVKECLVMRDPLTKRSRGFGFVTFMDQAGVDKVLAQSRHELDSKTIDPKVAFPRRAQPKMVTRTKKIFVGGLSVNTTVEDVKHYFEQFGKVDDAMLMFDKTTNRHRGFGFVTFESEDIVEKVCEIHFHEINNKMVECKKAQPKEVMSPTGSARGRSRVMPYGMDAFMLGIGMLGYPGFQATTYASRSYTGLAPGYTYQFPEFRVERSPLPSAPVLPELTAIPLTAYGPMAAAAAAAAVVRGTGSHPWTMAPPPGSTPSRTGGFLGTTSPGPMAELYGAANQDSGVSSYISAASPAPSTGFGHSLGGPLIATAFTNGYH
row,Binder,binding signal [enrichment R]
1,B1,0.449
2,B2,0.924
3,B3,28.4
4,B4,2
5,B5,0.187
6,B6,0.415
7,B7,0.633
8,B8,9.62
9,B9,0.292
10,B10,1.28
11,B11,0.363
12,B12,2.02
13,B13,0.689
14,B14,0.367
